# Reference: paper PMC4336329 (PLoS ONE, 2015)
# Among all 310,000 compounds or so, about 14,000 (4.5%) showed an effect of 50% or more. Effects have a minus sign here. The list shows a part of the results.
# Biological target: human ether-à-go-go-related gene (hERG) potassium channel (human, UniProt Q12809)
# Experiment: primary screen, population patch clamp on CHO cells stably expressing hERG
# 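Further: peak tail current of the secondary pulse compared with the same well before compound.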
# Sequence of human ether-à-go-go-related gene (hERG) potassium channel (Q12809 whole entry, looked up): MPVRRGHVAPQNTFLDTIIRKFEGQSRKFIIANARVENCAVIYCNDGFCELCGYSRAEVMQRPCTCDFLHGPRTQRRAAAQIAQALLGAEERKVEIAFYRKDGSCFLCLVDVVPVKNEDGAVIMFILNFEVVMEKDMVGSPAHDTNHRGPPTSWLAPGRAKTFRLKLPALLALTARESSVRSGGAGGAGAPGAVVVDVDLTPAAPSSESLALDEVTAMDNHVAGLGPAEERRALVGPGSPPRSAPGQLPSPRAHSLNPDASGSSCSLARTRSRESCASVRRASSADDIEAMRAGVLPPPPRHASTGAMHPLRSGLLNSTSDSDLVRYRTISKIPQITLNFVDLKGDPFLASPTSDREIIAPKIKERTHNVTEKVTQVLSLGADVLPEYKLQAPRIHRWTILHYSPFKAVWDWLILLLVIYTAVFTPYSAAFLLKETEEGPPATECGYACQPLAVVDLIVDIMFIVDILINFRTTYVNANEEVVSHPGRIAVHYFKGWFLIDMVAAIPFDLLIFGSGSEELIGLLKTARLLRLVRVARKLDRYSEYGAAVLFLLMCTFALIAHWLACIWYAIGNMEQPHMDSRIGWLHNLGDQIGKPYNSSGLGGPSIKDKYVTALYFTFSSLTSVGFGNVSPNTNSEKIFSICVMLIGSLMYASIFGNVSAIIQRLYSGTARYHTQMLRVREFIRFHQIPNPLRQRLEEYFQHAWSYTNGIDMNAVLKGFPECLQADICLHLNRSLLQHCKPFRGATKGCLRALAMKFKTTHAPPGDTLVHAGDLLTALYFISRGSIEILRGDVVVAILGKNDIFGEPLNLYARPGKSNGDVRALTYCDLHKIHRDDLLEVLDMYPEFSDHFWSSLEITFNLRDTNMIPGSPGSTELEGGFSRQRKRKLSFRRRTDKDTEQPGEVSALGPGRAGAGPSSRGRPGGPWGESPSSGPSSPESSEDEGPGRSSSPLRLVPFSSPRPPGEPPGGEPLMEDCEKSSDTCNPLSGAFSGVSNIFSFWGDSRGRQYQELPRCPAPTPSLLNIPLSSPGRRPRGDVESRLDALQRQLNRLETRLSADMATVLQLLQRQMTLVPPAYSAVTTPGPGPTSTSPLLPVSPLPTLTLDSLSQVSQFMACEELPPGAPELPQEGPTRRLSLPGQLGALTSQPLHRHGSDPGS
row,SMILES,"hERG current change (%, negative = inhibition) at 10uM [%]"
1,CCc1ccc(N(C(=O)c2csnn2)C(C(=O)NC(C)(C)CC)c2ccccn2)cc1 (centres unmarked),-54.3
2,Cn1c(NC(=O)C[n+]2cc(-c3ccc(Cl)cc3)n3c2CCC3)cc(=O)n(C)c1=O.[Cl-],11.3
3,O=C1C(Cl)=C(N2CCC(C(=O)O)CC2)C(=O)c2ccccc21,-18.8
4,Cc1nnc(SCC(=O)Nc2c(Cl)cccc2Cl)[nH]c1=O,19.7
5,CC(=O)Nc1ccc(S(=O)(=O)Nc2ccc3c(c2)C(=O)OC3)cc1,17.4
6,COC(=O)C1=C(C)N(Cc2ccccc2)C(=O)N[C@H]1c1ccccc1,-13.5
7,O=C(Nc1ccccc1)[C@@H]1CC=C[C@@H]2CCN(C3CCCCC3)C(=O)[C@@H]21,2.73
8,CCCCN(C(=O)c1ccc([N+](=O)[O-])s1)c1c(N)n(CC(C)C)c(=O)[nH]c1=O,5.29
9,O=C(/C=C/c1cccs1)c1ccc(Br)cc1,7.19
10,O=C(/C=C/c1ccc(Cl)c([N+](=O)[O-])c1)c1cccnc1,-6.3
11,Cc1cccc(CSc2nc3[nH]ncc3c(=O)[nH]2)c1,-3.96
12,O=C(Nc1ccc(N2C(=O)c3cccc4cccc(c34)C2=O)cc1)c1ccc(N2CCCCC2)c([N+](=O)[O-])c1,-9.73
13,Cc1ccc(C2CC(=O)NC(SCCC(C)C)=C2C#N)cc1 (centres unmarked),-10.6
14,COc1ccc(CN(C)C2CCCCC2)c(C)c1C,-28.4
15,Cc1cccc(OCCC(=O)OCC(=O)Nc2c(C)nn(-c3ccccc3)c2C)c1,-22.6
16,Fc1ccc2c(c1)nnn2C1CCN(Cc2c(Cl)cccc2Cl)CC1,7.11
17,CC(NS(=O)(=O)c1ccc2c(c1)oc(=O)n2C)c1ccccc1 (centres unmarked),6.29
18,Cc1n[nH]c(C)c1S(=O)(=O)N1CCCC(C(=O)NC2CCCCC2)C1 (centres unmarked),6.14
19,Nc1ccc2oc3ccc(N)cc3c(=O)c2c1,13.8
20,Cc1ccc(C2CC2c2n[nH]c(=S)n2-c2cccc(Cl)c2)cc1 (centres unmarked),21.6
21,C=CCN(CC=C)CCOc1ccccc1.O=C(O)C(=O)O,3.37
22,Cc1ccc2c3c(cccc13)-c1ccccc1C2=O,8.03

row,SMILES,"hERG current change (%, negative = inhibition) at 10uM [%]"
1,CCN1C(=O)N[C@@H](c2ccc(Br)cc2)C(C(=O)OC)=C1C,-13.6
2,CC(C)CN(C(=O)CN(C)C(=O)Cc1ccc(Cl)cc1)c1c(N)n(CC(C)C)c(=O)[nH]c1=O,10.8
3,CCn1c(SCC(=O)Nc2cccc(C)n2)nnc1-c1ccco1,-50.9
4,S=C(c1ccc(-c2ccc(Cl)cc2Cl)o1)N1CCCC1,16.9
5,COc1ccc(CCNC(=O)CCCn2c(SCC#N)nc3ccccc3c2=O)cc1OC,-12.7
6,CCN(CCn1cccn1)Cc1c(C(=O)N2C[C@@H](C)O[C@@H](C)C2)nc2ccc(Cl)cn12,17.4
7,C=CCNC(=S)NNC(=O)c1cc(Cl)ccc1OC,18.2
8,O=C(NC1CCCC1)C(c1ccc(F)cc1)N(C(=O)c1csnn1)C1CCCC1 (centres unmarked),9.14
9,CC1CCCC(NC(=O)CCNS(=O)(=O)c2ccc(Br)cc2)C1C (centres unmarked),-27.5
10,O=C(Cn1cc(C(=O)C(F)(F)F)c2ccccc21)NCc1ccco1,7.02
11,Cc1oc(-c2ccccc2F)nc1CS(=O)(=O)CC(=O)NCCCN1CCc2ccccc2C1,-48.6
12,CCN(C(=O)c1ccc(S(=O)(=O)N(C)C)cc1)C(C)C(=O)Nc1ccc(C)cc1 (centres unmarked),14.2
13,C=CCn1c(-c2cccn(Cc3ccccc3)c2=O)n[nH]c1=S,16.9
14,CCn1cc(C(=O)OCC(=O)NCc2ccccc2Cl)c(=O)c2ccc(C)nc21,13.9
15,Cc1ccc(S(=O)(=O)c2nc(S(C)(=O)=O)sc2N2CCC(C(N)=O)CC2)cc1,7.6
16,Cc1cccc(C)c1NC(=O)CNC(=O)c1cccc(S(=O)(=O)NCc2cccs2)c1,1.15
17,O=C(Nc1ccc(N2CCCCC2)cc1)c1cc([N+](=O)[O-])cc([N+](=O)[O-])c1,16.8
18,Cc1cc(C(=O)CN2C(=O)NC3(CCCCC3)C2=O)c(C)n1Cc1ccc2c(c1)OCO2,5.87
19,CCSc1nc(N)c2c3c(sc2n1)CN(C)CC3,-19.5
20,CC(=O)N(Cc1ccco1)Cc1cc2cccc(C)c2n2nnnc12,-3.36
21,CC1CCN(CCCNS(=O)(=O)c2cc(Br)cc3c2N(C(=O)C2CC2)CC3)CC1,-26.9
22,O=C(NCc1ccccc1Cl)c1cccc(NC(=O)c2ccccc2)c1,-8.78
